These are yes or no findings as the source states them, for the method shown. Some entries that bind do so weakly or less than the wild type. Tags and fused reporters may be left off the sequences shown.

The target in assay [1] is T1, GST-Rad54 (S. cerevisiae) (UniProt P32863).
T1 sequence: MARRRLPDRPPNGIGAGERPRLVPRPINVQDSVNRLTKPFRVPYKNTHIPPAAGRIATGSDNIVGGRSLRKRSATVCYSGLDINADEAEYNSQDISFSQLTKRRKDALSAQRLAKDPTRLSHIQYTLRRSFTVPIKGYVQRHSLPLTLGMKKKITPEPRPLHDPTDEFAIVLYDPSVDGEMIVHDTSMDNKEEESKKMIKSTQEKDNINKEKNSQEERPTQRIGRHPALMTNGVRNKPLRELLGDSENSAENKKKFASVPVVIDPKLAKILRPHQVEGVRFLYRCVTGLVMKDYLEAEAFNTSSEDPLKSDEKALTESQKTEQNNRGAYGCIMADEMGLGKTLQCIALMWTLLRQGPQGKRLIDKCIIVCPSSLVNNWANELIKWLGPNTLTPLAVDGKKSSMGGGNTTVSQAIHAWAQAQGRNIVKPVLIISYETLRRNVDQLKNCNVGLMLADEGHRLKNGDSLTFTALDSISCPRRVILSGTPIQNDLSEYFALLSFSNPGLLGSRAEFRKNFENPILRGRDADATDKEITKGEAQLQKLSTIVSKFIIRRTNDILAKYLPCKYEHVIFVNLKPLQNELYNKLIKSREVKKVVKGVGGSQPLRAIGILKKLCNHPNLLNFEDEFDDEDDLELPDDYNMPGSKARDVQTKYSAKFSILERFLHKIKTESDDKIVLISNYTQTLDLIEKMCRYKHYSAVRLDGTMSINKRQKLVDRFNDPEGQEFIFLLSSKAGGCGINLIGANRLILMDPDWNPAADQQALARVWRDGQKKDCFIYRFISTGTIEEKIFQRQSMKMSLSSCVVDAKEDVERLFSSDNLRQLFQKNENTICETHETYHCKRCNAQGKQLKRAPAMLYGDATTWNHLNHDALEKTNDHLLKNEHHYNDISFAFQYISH
Description: pull-down; GST-Rad54 (3 μg) immobilised on glutathione-Sepharose beads, incubated with purified PCNA (5 μg) overnight on ice; 50 mM Tris/HCl pH 7.5, 100 mM NaCl, 1 mM EDTA, 1 mM DTT, 10% glycerol, 0.01% Nonidet P-40; five washes; eluted with 20 mM reduced glutathione; SDS-PAGE; both purified.

The target of assay [2] is T1, GST-Rad54 (S. cerevisiae). Description: pull-down; GST-Rad54 pull-down under different reaction conditions, 50–150 mM salt concentrations; data not shown; both purified.
In assay [3] the target is T2, GST-Rev1-PAD (truncated Rev1, amino acids 623 to 767, including the polymerase-associated domain) (S. cerevisiae) (UniProt P12689).
T2 sequence: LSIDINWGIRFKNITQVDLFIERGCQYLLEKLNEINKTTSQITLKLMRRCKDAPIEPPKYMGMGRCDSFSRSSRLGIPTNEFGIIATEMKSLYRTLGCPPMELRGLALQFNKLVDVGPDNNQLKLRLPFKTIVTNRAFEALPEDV
Description: pull-down; GST-Rev1-PAD (5 μg) immobilised on glutathione-Sepharose beads, incubated with purified PCNA (5 μg) overnight on ice; 50 mM Tris/HCl pH 7.5, 100 mM NaCl, 1 mM EDTA, 1 mM DTT, 10% glycerol, 0.01% Nonidet P-40; five washes; eluted with 20 mM reduced glutathione; SDS-PAGE; both purified.

The target in assay [4] is T3, GST-Rev1 (full-length Rev1) (S. cerevisiae, UniProt P12689 1-985).
T3 construct: Rev1, yeast, full-length; Held on the beads by GST during the incubation; Rev1 was cut from GST by PreScission protease only at the elution step; not shown: GST, N-terminal, kept
T3 sequence (looked up): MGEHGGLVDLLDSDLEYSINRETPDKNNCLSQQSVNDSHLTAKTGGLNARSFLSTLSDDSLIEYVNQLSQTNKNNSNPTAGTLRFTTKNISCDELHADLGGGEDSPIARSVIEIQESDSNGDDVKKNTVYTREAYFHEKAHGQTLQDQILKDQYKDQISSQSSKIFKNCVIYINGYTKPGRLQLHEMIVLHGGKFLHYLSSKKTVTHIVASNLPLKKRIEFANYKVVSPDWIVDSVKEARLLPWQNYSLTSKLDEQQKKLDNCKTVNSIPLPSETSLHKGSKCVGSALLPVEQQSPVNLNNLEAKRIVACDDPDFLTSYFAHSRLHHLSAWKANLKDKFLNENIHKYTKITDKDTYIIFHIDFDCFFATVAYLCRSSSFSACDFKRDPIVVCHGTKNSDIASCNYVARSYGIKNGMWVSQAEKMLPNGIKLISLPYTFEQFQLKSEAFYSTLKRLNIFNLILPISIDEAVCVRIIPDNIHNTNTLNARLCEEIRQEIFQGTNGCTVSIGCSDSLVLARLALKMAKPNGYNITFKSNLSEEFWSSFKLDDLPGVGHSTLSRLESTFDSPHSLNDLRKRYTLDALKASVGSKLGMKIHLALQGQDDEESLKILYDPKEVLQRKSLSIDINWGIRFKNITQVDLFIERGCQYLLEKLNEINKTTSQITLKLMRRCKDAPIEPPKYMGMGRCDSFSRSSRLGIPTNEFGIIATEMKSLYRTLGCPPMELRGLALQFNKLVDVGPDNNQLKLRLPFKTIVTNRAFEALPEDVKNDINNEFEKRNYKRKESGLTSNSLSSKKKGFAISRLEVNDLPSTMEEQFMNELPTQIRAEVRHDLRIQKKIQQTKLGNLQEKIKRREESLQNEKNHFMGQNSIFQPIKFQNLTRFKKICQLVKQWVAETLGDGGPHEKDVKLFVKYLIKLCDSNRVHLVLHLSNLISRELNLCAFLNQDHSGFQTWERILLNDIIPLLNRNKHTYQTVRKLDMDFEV
Description: pull-down; GST-Rev1 (5 μg) immobilised on glutathione-Sepharose beads, incubated with purified PCNA (3 μg) overnight on ice; 50 mM Tris/HCl pH 7.5, 100 mM NaCl, 1 mM EDTA, 1 mM DTT, 10% glycerol, 0.01% Nonidet P-40; five washes; eluted by PreScission protease cleavage of Rev1 from GST; SDS-PAGE; both purified.

Assay [5] addresses T2, GST-Rev1-PAD (truncated Rev1, amino acids 623 to 767, including the polymerase-associated domain) (S. cerevisiae). Description: pull-down; GST-Rev1-PAD pull-down repeated with varying (50–150 mM) salt concentrations; data not shown; both purified.

For the molecule “II181,182AA mutant PCNA (from UniProt P15873 1-258)”, the binding entry in assay [1] and in assay [2] was “binds” each time.

On to “II99,100AA mutant PCNA (from UniProt P15873 1-258)”, for which the binding result in assay [3] is on record as “binds”; in assay [4], “no binding (tested: 3 μg PCNA with 5 μg GST-Rev1)”; in assay [5], “binds”.

B1: wild type PCNA (proliferating cell nuclear antigen, Saccharomyces cerevisiae) (natural protein, S. cerevisiae)
chain: MLEAKFEEASLFKRIIDGFKDCVQLVNFQCKEDGIIAQAVDDSRVLLVSLEIGVEAFQEYRCDHPVTLGMDLTSLSKILRCGNNTDTLTLIADNTPDSIILLFEDTKKDRIAEYSLKLMDIDADFLKIEELQYDSTLSLPSSEFSKIVRDLSQLSDSINIMITKETIKFVADGDIGSGSVIIKPFVDMEHPETSIKLEMDQPVDLTFGAKYLLDIIKGSSLSDRVGIRLSSEAPALFQFDLKSGFLQFFLAPKFNDEE
notes: PCNA (POL30 gene product), Saccharomyces cerevisiae, wild type; the oligomeric state of the purified protein was not measured here; also called wt PCNA; yeast PCNA; source: yeast BJ5464, overexpressed as GST fusion, purified on glutathione-Sepharose 4B, GST removed by PreScission protease; not shown: GST, N-terminal, cleaved
On to B1, for which the binding result in assay [1], in assay [2], in assay [3] and in assay [5] was “binds” each time.
